Molecules are shown by their SMILES. Screen size: about 50,000 compounds; about 800 (1.6%) showed an effect of 50% or more. The list shows a part of the results.

In this test the target is Bcl-2-like protein 10 (Homo sapiens) (UniProt Q9HD36). Nature of the test: Phenotype converters, Bcl-B/TR3 peptide binding displacement, primary biochemical FP (AID 1240).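 Further: 0% = Bcl-B with tracer peptide and DMSO and 100% = tracer peptide lacking Bcl-B.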 To be noted: GST-Bcl-B / FITC-TR3 peptide fluorescence polarization; stronger effect = higher value; compound at 3.75 mg/L. For orientation: Fluorescence polarisation rises when a labelled molecule tumbles more slowly, as on binding a larger partner.
Chain of UniProt Q9HD36 (Q9HD36 whole entry, looked up): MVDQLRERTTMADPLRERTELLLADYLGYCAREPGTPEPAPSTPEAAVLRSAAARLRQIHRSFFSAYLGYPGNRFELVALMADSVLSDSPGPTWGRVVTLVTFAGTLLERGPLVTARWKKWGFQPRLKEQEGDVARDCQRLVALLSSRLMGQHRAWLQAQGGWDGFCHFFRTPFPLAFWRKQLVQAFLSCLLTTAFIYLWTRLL
Turning to `CC(=O)N1C(=O)/C(=C2\SC(=S)N(Cc3ccccc3)C2=O)c2ccccc21`, the displacement is -15%.

In the case of `O=C(Cc1ccccc1[N+](=O)[O-])Nc1ccc(OCc2ccccc2)cc1`, the displacement is 4.7%.

Turning to `O=C(Nc1ccccc1I)C1CC(=O)N(c2ccc(Cl)cc2)C1` (centres undefined), the displacement came to 7.5%.

For the compound `CCC(C)N1CCN(S(=O)(=O)c2ccccc2)CC1` (centres undefined), the displacement is -11%.

`CC(=O)c1ccc(S(=O)(=O)NCc2cccnc2)cc1`: the displacement is 8%.

On to `COC(=O)/C=C(\C)NCCN/C(C)=C/C(=O)OC`, for which the displacement is -11.3%.

As for `O=C(CCN1C(=O)c2cccc3cccc(c23)C1=O)NCc1ccco1`, the displacement is -2.6%.

Take `COc1ccccc1N1C(=O)c2ccc(C(=O)Nc3cc(C(=O)O)ccc3C)cc2C1=O`: the displacement is -4.5%.

On to `CCC(C)(C)C1CCc2c(sc(NC(=O)c3ccc([N+](=O)[O-])c(C)c3)c2C(N)=O)C1` (centres undefined), for which the displacement was -0.5%.

`CC(=O)c1ccc(N2C(=O)CC(N(C)Cc3ccccc3)C2=O)cc1` (centres undefined): the displacement is -3.3%.

In the case of `CCOC(=O)c1c(NC(=O)C23CC4CC(CC(C4)C2)C3)sc(C(=O)Nc2ccccc2F)c1C`, the displacement was -3.9%.

In the case of `Cc1onc(-c2ccccc2)c1C(=O)Nc1ccc([N+](=O)[O-])cc1Cl`, the displacement was 1.5%.

On to `COc1ccc(C2/C(=C(\O)c3ccc(Cl)cc3)C(=O)C(=O)N2CCCCCC(=O)O)cc1OC` (centres undefined), for which the displacement was -5.1%.

In the case of `O=C(NNC(=O)c1cc(NC(=O)c2ccc([N+](=O)[O-])cc2)cc(C(=O)NNC(=O)c2ccccc2)c1)c1ccccc1`, the displacement was -6.9%.

Turning to `N#Cc1c(NC(=O)/C=C/c2ccccc2)sc2c1CCCC2`, the displacement was 5.2%.

For the compound `COc1ccc(S(=O)(=O)N(CC(=O)Nc2cc(Cl)ccc2C)Cc2ccccc2)cc1`, the displacement is -6%.

Regarding `Brc1cccc(-c2nnc(SCc3ccccc3)o2)c1`, the displacement was -18.6%.

`O=C(Nc1ccc(I)cc1Cl)c1cccs1`: the displacement is -12.3%.

Consider `O=C(Nc1ccncc1)c1cc(Cl)ccc1Cl`, for which the displacement stood at 3.7%.

As for `O=C(Nc1cccc2c1CCCC2)c1ccc(Br)cc1`, the displacement was -4.8%.

As for `N#C/C(=C\c1ccc(O)cc1)c1nc(-c2ccc(-c3ccccc3)cc2)cs1`, the displacement is 21.6%.

In the case of `O=C(Cn1c(O)c(N=NC(=O)C(=O)NCc2ccccc2)c2ccccc21)Nc1ccccc1`, the displacement is -2.3%.

`CCSc1nnc2n(-c3ccc(OC)cc3)c(=O)c3c4c(sc3n12)CCCC4`: the displacement was found to be 119%.

On to `COCCOC(=O)C1=C(C)NC2=C(C(=O)CCC2)C1c1ccc([N+](=O)[O-])cc1` (centres undefined), for which the displacement was found to be 5.9%.

Turning to `Cn1ccc(C(=O)N/N=C/c2cccc(OCc3ccccc3)c2)n1`, the displacement came out at 4.1%.

As to `O=C(NCS(=O)(=O)c1ccccc1)c1ccccc1`, the displacement is 4.9%.

For the compound `CCN(CC)c1ccc(NC(=O)COc2ccc(C)cc2C)cc1`, the displacement was determined as 5.6%.

`COc1ccc(-c2nc(-c3ccc(F)cc3)no2)cc1OC`: the displacement is -7.7%.

On to `C=CCn1c(-c2ccccc2C)n[nH]c1=S`, for which the displacement is -1.6%.
